In the supplement of paper PMC9927326:
MIC of clinical C. albicans isolates, CLSI broth microdilution (ranges and time not stated); higher = less susceptible. Call: susceptible or wild type [S] / resistant or non-wild type [R] by CLSI breakpoints or epidemiological cut-offs; intermediate and dose-dependent carry no call here (the paper groups them with resistant). '<=' and '>=' mark each drug's lowest and highest value, inferred; the source prints them plain. Isolates are numbered anew.

Legend:
Assay in all cases: CLSI broth microdilution.
micafungin = compound: CCCCCOc1ccc(-c2cc(-c3ccc(C(=O)N[C@H]4C[C@@H](O)[C@@H](O)NC(=O)[C@@H]5[C@@H](O)[C@@H](C)CN5C(=O)[C@H]([C@H](O)CC(N)=O)NC(=O)[C@H]([C@H](O)[C@@H](O)c5ccc(O)c(OS(=O)(=O)O)c5)NC(=O)[C@@H]5C[C@@H](O)CN5C(=O)[C@H]([C@@H](C)O)NC4=O)cc3)no2)cc1 [micafungin]
fluconazole = compound: OC(Cn1cncn1)(Cn1cncn1)c1ccc(F)cc1F [fluconazole]
anidulafungin = compound: CCCCCOc1ccc(-c2ccc(-c3ccc(C(=O)N[C@H]4C[C@@H](O)[C@@H](O)NC(=O)[C@@H]5[C@@H](O)[C@@H](C)CN5C(=O)[C@H]([C@@H](C)O)NC(=O)[C@H]([C@H](O)[C@@H](O)c5ccc(O)cc5)NC(=O)[C@@H]5C[C@@H](O)CN5C(=O)[C@H]([C@@H](C)O)NC4=O)cc3)cc2)cc1 [anidulafungin]
flucytosine = compound: Nc1[nH]c(=O)ncc1F [flucytosine]
itraconazole = compound: CCC(C)n1ncn(-c2ccc(N3CCN(c4ccc(OCC5COC(Cn6cncn6)(c6ccc(Cl)cc6Cl)O5)cc4)CC3)cc2)c1=O [itraconazole]
caspofungin = compound: CC[C@H](C)C[C@H](C)CCCCCCCCC(=O)N[C@H]1C[C@@H](O)[C@@H](NCCN)NC(=O)[C@@H]2[C@@H](O)CCN2C(=O)[C@H]([C@H](O)CCN)NC(=O)[C@H]([C@H](O)[C@@H](O)c2ccc(O)cc2)NC(=O)[C@@H]2C[C@@H](O)CN2C(=O)[C@H]([C@@H](C)O)NC1=O [caspofungin]
amphotericin B = compound: C[C@@H]1[C@H](O)[C@@H](C)/C=C/C=C/C=C/C=C/C=C/C=C/C=C/[C@H](O[C@@H]2O[C@H](C)[C@@H](O)[C@H](N)[C@@H]2O)C[C@@H]2O[C@](O)(C[C@@H](O)C[C@@H](O)[C@H](O)CC[C@@H](O)C[C@@H](O)CC(=O)O[C@H]1C)C[C@H](O)[C@H]2C(=O)O [amphotericin B]
posaconazole = compound: CC[C@@H]([C@H](C)O)n1ncn(-c2ccc(N3CCN(c4ccc(OC[C@@H]5CO[C@@](Cn6cncn6)(c6ccc(F)cc6F)C5)cc4)CC3)cc2)c1=O [posaconazole]
voriconazole = compound: C[C@@H](c1ncncc1F)[C@](O)(Cn1cncn1)c1ccc(F)cc1F [voriconazole]

Row | Test System | MIC (micafungin) | MIC (fluconazole) | MIC (anidulafungin) | MIC (flucytosine) | MIC (itraconazole) | MIC (caspofungin) | MIC (amphotericin B) | MIC (posaconazole) | MIC (voriconazole)
1 | Candida albicans isolate 287 (Erg11p: V488I,E266D, Fur1p: WT, Tac1p: N896S,I558V,A377V,F189S,N174D,M170I,K87N) | ≤ 0.008 mg/L [S] | 0.5 mg/L [S] | 0.12 mg/L [S] | ≤ 0.06 mg/L [S] | 0.06 mg/L [S] | 0.03 mg/L [S] | 0.5 mg/L [S] | 0.03 mg/L [S] | ≤ 0.008 mg/L [S]
2 | Candida albicans isolate 289 (Erg11p: WT, Fur1p: WT, Tac1p: N896S) | ≤ 0.008 mg/L [S] | 0.5 mg/L [S] | ≤ 0.015 mg/L [S] | ≤ 0.06 mg/L [S] | 0.03 mg/L [S] | 0.03 mg/L [S] | 0.25 mg/L [S] | 0.015 mg/L [S] | ≤ 0.008 mg/L [S]
3 | Candida albicans isolate 83 (Erg11p: V488I,L276S,E266D, Fur1p: WT, Tac1p: N896S,I895T) | 0.015 mg/L [S] | 1 mg/L [S] | 0.12 mg/L [S] | ≤ 0.06 mg/L [S] | 0.03 mg/L [S] | 0.015 mg/L [S] | 0.25 mg/L [S] | 0.03 mg/L [S] | 0.015 mg/L [S]
4 | Candida albicans isolate 360 (Erg11p: WT, Fur1p: WT, Tac1p: I558V,A377V,F189S,N174D,M170I,K87N) | ≤ 0.008 mg/L [S] | ≤ 0.12 mg/L [S] | ≤ 0.015 mg/L [S] | ≤ 0.06 mg/L [S] | ≤ 0.015 mg/L [S] | 0.03 mg/L [S] | 0.5 mg/L [S] | 0.015 mg/L [S] | ≤ 0.008 mg/L [S]
5 | Candida albicans isolate 239 (Erg11p: WT, Fur1p: WT, Tac1p: WT) | 0.015 mg/L [S] | 0.5 mg/L [S] | 0.03 mg/L [S] | ≤ 0.06 mg/L [S] | 0.03 mg/L [S] | 0.03 mg/L [S] | 0.5 mg/L [S] | 0.015 mg/L [S] | ≤ 0.008 mg/L [S]
6 | Candida albicans isolate 6 (Erg11p: V437I,E266D, Fur1p: WT, Tac1p: F189S,N174D,M170I,A90T,K87N) | ≤ 0.008 mg/L [S] | ≥ 256 mg/L [R] | ≤ 0.015 mg/L [S] | ≤ 0.06 mg/L [S] | ≥ 16 mg/L [R] | 0.03 mg/L [S] | 1 mg/L [S] | ≥ 8 mg/L [R] | ≥ 8 mg/L [R]
7 | Candida albicans isolate 186 (Erg11p: E266D, Fur1p: WT, Tac1p: C908Y,A377V,N174D,M170I,I109N,K87N) | ≤ 0.008 mg/L [S] | 0.5 mg/L [S] | 0.03 mg/L [S] | ≤ 0.06 mg/L [S] | 0.03 mg/L [S] | 0.03 mg/L [S] | 0.5 mg/L [S] | 0.03 mg/L [S] | ≤ 0.008 mg/L [S]
8 | Candida albicans isolate 85 (Erg11p: WT, Fur1p: WT, Tac1p: N896S) | 0.12 mg/L [S] | 2 mg/L [S] | 0.12 mg/L [S] | 0.12 mg/L [S] | 0.25 mg/L [R] | 0.12 mg/L [S] | 0.5 mg/L [S] | 0.12 mg/L [R] | 0.03 mg/L [S]
